Experimental data taken from patent US20250135021A1, “USE OF ANTIBODY-DRUG CONJUGATE, AND COMBINED DRUG AND USE THEREOF” (SHANGHAI MIRACOGEN INC., priority 2021, published 2025).

Columns and labels:
[1] = system: human lung cancer cell line NCI-H1650; assay: In vitro killing activity, cell proliferation inhibition method using CCK-8; assay type: cell-based; details: NCI-H1650, DelE746-A750; mean of two 96-well plates; ND = highest proliferation inhibition % less than 50%
[2] = system: human lung cancer cell line NCI-H1975; assay: as above; assay type: cell-based; details: NCI-H1975, L858R/T790M; mean of two 96-well plates; ND = highest proliferation inhibition % less than 50%
[3] = system: human lung cancer PDX model LUN #2210-106; assay: Efficacy of MYK-3, AK103 and their combination in human lung cancer PDX model LUN #2210-106 in Hu-HSC-NPG mice; assay type: in vivo
Protocol: LUN #2210-106 is an AZD9291-resistant human adenosquamous carcinoma of the lung PDX model. This experiment was performed in total of 4 groups, including a Vehicle group (ADC-3 vehicle), an ADC-3 administration group (1 mg/kg), an AK103 administration group (5 mg/kg), and an ADC-3 (1 mg/kg)+AK103 (5 mg/kg) administration group. During the entire experiment, ADC-3 was administered three times in total for the ADC-3 single-drug administration group, via tail vein injection on Day 0, Day 4, and Day 8; and AK103 was administered every three days via tail vein injection for the AK103 single-drug administration group, 8 times in total. For the ADC-3+AK103 administration group, ADC-3 was administered three times, and AK103 was administered ten times in total, and their administration modes were the same as those for the single-drug administration groups. The experiment period was 34 days. […] During the period from Day 20 to Day 34, the mean tumor volume of animals in the ADC-3 (1 mg/kg) administration group gradually resumed growth (from 184 mm^3 to 893 mm^3); the mean tumor volume of animals in the ADC-3 (1 mg/kg)+AK103 (5 mg/kg) administration group grew slowly (from 38 mm^3 to 126 mm^3), and on Day 34, complete tumor regression was still observed in 1 out of 6 animals.

B1: MYK-3: ADC of anti-EGFR monoclonal antibody BA03 and MMAE via MC-vc-PAB (vc) linker; average DAR 4.1 (conjugate)
heavy: QVQLQESGPGLVKPSETLSLTCTVSGFSLSNYDVHWVRQAPGKGLEWLGVIWSGGNTDYNTPFTSRLTISVDTSKNQFSLKLSSVTAADTAVYYCARALDYYDYEFAYWGQGTLVTVSSASTKGPSVFPLAPSSKSTSGGTAALGCLVKDYFPEPVTVSWNSGALTSGVHTFPAVLQSSGLYSLSSVVTVPSSSLGTQTYICNVNHKPSNTKVDKRV[skipping human IgG1 Fc]
light: EIVLTQSPDFQSVTPKEKVTITCRASQSIGTNIHWYQQKPDQSPKLLIKYASESISGIPSRFSGSGSGTDFTLTINSLEAEDAATYYCQQNNEWPTSFGQGTKLEIKRTVAAPSVFIFPPSDEQLKSGTASVVCLLNNFYPREAKVQWKVDNALQSGNSQESVTEQDSKDSTYSLSSTLTLSKADYEKHKVYACEVTHQGLSSPVTKSFNRGEC
- IC50 (Mean ± SD, ng/mL) [1]: 3000 ± 790 ng/mL
- IC50 (Mean ± SD, ng/mL) [2]: 3.0 ± 0.7 ng/mL
- Tumor growth inhibition rate TGI % ([3]; 1 mg/kg i.v. q4d × 3, Day 20): 86.69%
- Tumor inhibition activity ([3]; 1 mg/kg, Day 20): +++ (T/C (%) >10% and ≤20%)
- mean tumor volume ([3]; 1 mg/kg, Day 20): 184 mm^3
- mean tumor volume ([3]; 1 mg/kg, Day 34): 893 mm^3
